Test results from patent US20230272055A1, “ANTI-MUTANT CALRETICULIN (CALR) ANTIBODIES AND USES THEREOF” (Incyte Corporation, priority 2021, published 2023).

B1: 5 (antibody)
heavy: EVQLVQSGAEVKKPGASVKVSCKVSGYTLTELSMQWVRQAPGKGLEWMGGFDPDDGETMYAEKFQGRLTVTEDTSTDTVYMELRSLTSEDTALYFCATSPGYDFFDYWGQGTLVTVSSASTKGPSVFPLAPSSKSTSGGTAALGCLVKDYFPEPVTVSWNSGALTSGVHTFPAVLQSSGLYSLSSVVTVPSSSLGTQTYICNVNHKPSNTKVDKRV[omitted - human IgG1 Fc]
light: SYVLTQPPSVSVAPGQTASITCVGTNFGSKNVHWYQQRPGQAPVLVVYDDSDRPSGIPERFSGSNSGNTATLTISRVEAGDEADYYCQVWDSSSDHLIFGGGTKLTVLGQPKAAPSVTLFPPSSEELQANKATLVCLISDFYPGAVTVAWKADSSPVKAGVETTTPSKQSNNKYAASSYLSLTPEQWKSHRSYSCQVTHEGSTVEKTVAPTECS
B2: 7 (antibody)
heavy: EVQLVQSGAEVKKPGASVKVSCKVSGYTLTELSMQWVRQAPGKGLEWMGGFDPDDGETMYAEKFQGRLTVTEDTSTDTVYMELRSLTSEDTALYFCATSPGYDFFDYWGQGTLVTVSSASTKGPSVFPLAPSSKSTSGGTAALGCLVKDYFPEPVTVSWNSGALTSGVHTFPAVLQSSGLYSLSSVVTVPSSSLGTQTYICNVNHKPSNTKVDKRV[omitted - human IgG1 Fc]
light: SYVLTQPPSVSVAPGQTASITCVGTNFGSKNVHWYQQRPGQAPVLVVYDDSDRPSGIPERFSGSNSGNTATLTINRVEAGDEADYYCQVWDSSNDLLIFGGGTKLTVLGQPKAAPSVTLFPPSSEELQANKATLVCLISDFYPGAVTVAWKADSSPVKAGVETTTPSKQSNNKYAASSYLSLTPEQWKSHRSYSCQVTHEGSTVEKTVAPTECS
B3: 1 (antibody)
heavy: EVQLVQSGAEVKKPGASVKVSCKVSGYTLTELSMQWVRQAPGKGLEWMGGFDPDDGETMYAEKFQGRLTVTEDTSTDTVYMELRSLTSEDTALYFCATSPGYDFFDYWGQGTLVTVSSASTKGPSVFPLAPSSKSTSGGTAALGCLVKDYFPEPVTVSWNSGALTSGVHTFPAVLQSSGLYSLSSVVTVPSSSLGTQTYICNVNHKPSNTKVDKRV[omitted - human IgG1 Fc]
light: SYVLTQPPSVSVAPGKTARITCGGNYIGSKSVHWYQQKPGQAPVLVVYDDGDRPSGIPARFSGSNSGNTATLTISRVEAGDEADYYCQVWDSISDHVVFGGGTKLTVLGQPKAAPSVTLFPPSSEELQANKATLVCLISDFYPGAVTVAWKADSSPVKAGVETTTPSKQSNNKYAASSYLSLTPEQWKSHRSYSCQVTHEGSTVEKTVAPTECS
B4: 41 (antibody)
heavy: EVQLVQSGAEVKKPGASVKVSCKVSGYTLTELSMHWVRQAPGKGLEWMGLVDPEDGETIYAQKFQGRVTMTEDTSTDTAYMELSSLRSEDTAVYYCAREEWSGDGDDAFDIWGQGTMVTVSSASTKGPSVFPLAPSSKSTSGGTAALGCLVKDYFPEPVTVSWNSGALTSGVHTFPAVLQSSGLYSLSSVVTVPSSSLGTQTYICNVNHKPSNTKVDKRV[omitted - human IgG1 Fc]
light: QSVLTQPPSVSAAPGQKVTISCSGSSSNIGSYSVSWYQQLPGTAPKLLIYDNNKRPSGIPDRFSGSNSGTSATLGITGLQTGDEADYYCGTWDSSLSAWVFGGGTKLTVLGQPKAAPSVTLFPPSSEELQANKATLVCLISDFYPGAVTVAWKADSSPVKAGVETTTPSKQSNNKYAASSYLSLTPEQWKSHRSYSCQVTHEGSTVEKTVAPTECS
B5: 34 (antibody)
heavy: QVQLVQSGAEVKKPGATVKISCKVSGYSFTDYFIHWVQQAPGKGLAWVGLVDPEDGETIYAEKFQGRVTITADTSTDTAYMELSSLRSEDTAVYYCATPGGILTDPDAFDIWGQGTMVTVSSASTKGPSVFPLAPSSKSTSGGTAALGCLVKDYFPEPVTVSWNSGALTSGVHTFPAVLQSSGLYSLSSVVTVPSSSLGTQTYICNVNHKPSNTKVDKRV[omitted - human IgG1 Fc]
light: QSALTQPASVSGSPGQSITISCTGTSSDVGGYNYVSWYQQHPGKAPKLMIYEVSNRPSGVSNRFSGSKSGNTASLTISGLQAEDEADYYCSSYTSSSTYVFGTGTKVTVLGQPKAAPSVTLFPPSSEELQANKATLVCLISDFYPGAVTVAWKADSSPVKAGVETTTPSKQSNNKYAASSYLSLTPEQWKSHRSYSCQVTHEGSTVEKTVAPTECS
B6: 35 (antibody)
heavy: QVQLVQSGAEVKKPGATVKISCKVSGYSFTDYFIHWVQQAPGKGLAWVGLVDPEDGETIYAERFQGRVTITADTSTDTAYMELSSLRSEDTAVYYCATPGGILTDPDAFDIWGQGTMVTVSSASTKGPSVFPLAPSSKSTSGGTAALGCLVKDYFPEPVTVSWNSGALTSGVHTFPAVLQSSGLYSLSSVVTVPSSSLGTQTYICNVNHKPSNTKVDKRV[omitted - human IgG1 Fc]
light: QSALTQPASVSGSPGQSITISCTGTSSDVGGYNYVSWYQQHPGKAPKLMIYEVSNRPSGVSNRFSGSKSGNTASLTISGLQAEDEADYYCSSYTSSSTPYVFGTGTKVTVLGQPKAAPSVTLFPPSSEELQANKATLVCLISDFYPGAVTVAWKADSSPVKAGVETTTPSKQSNNKYAASSYLSLTPEQWKSHRSYSCQVTHEGSTVEKTVAPTECS
B7: 53 (antibody)
heavy: QVQLVQSGAEVKKPGASVKVSCKVSGYTLTELSMHWVRQAPGKGLEWMGGFDPEDGETIYAQKFQGRVTMTEDTSTDTAYMELSSLRSEDTAVYYCATDIQGLAEFDYWGQGTLVTVSSASTKGPSVFPLAPSSKSTSGGTAALGCLVKDYFPEPVTVSWNSGALTSGVHTFPAVLQSSGLYSLSSVVTVPSSSLGTQTYICNVNHKPSNTKVDKRV[omitted - human IgG1 Fc]
light: QSALTQPRSVSGSPGQSVTISCTGTNTDVGAYIDVSWYQQHPGKAPKLIIYDVSKWPSGVPDRFSGSKSGNTASLTISGLQAEDEADYYCCSYAGNHSFSFGGGTKVTVLGQPKAAPSVTLFPPSSEELQANKATLVCLISDFYPGAVTVAWKADSSPVKAGVETTTPSKQSNNKYAASSYLSLTPEQWKSHRSYSCQVTHEGSTVEKTVAPTECS

Tests used:
[1] = system: MPL-mutCALR cells (BaF3 cells stably expressing human MPL and human mutCALR); assay: Flow cytometry binding to cell surface MPL and mutCALR (GMFI, four parameter fit); details: four parameter curve fitting
Experimental: To assess binding of CALR antibodies to cell surface CALR, parental BaF3 (DSMZ) cells or BaF3 cells stably expressing only human MPL or both human MPL (Uniprot Number: P40238-1) and human mutCALR Type 1 and Type 2 were used. On the day of the assay, cells were washed and resuspended in assay buffer. Approximately 200,000 cells/well were added to 96-well plates and stained with the indicated concentration of antibodies for 30 minutes on ice. Cells were then washed and stained with goat anti-human secondary conjugated to R-phycoerythrin (R-PE) (Jackson Immuno Research Laboratories) for 30 minutes on ice. The cells were then washed and analyzed by flow cytometry. Geometric Mean Fluorescence Intensity (GMFI) of cell binding was graphed and EC50, hill slope, and area under the curve (AUC) were determined after four parameter curve fitting using GraphPad Prism Software (version 7.04).

[2] = system: Ba/F3 cells transfected with MPL and mutCALR Type 1; assay: Inhibition of cell proliferation, CellTiter-Glo 72 hours, mutCALR Type 1; format: cell-based; details: Ba/F3 engineered cells, high-throughput primary screening
Experimental: To test the ability of anti-mutCALR antibodies to inhibit cell proliferation, engineered Ba/F3 cells transfected with MPL and mutCALR Type 1 were plated at 5,000 cells per well in RPMI 1640+2% FBS, antibodies added, incubated for 72 hours, and followed by assessment of cell viability using the CellTiter-Glo Luminescent Cell Viability Assay (Promega, Madison, Wis.) and Top Count (Perkin Elmer, Boston, Mass.) or Pherastar (BMG Labtech, Ortenberg, Germany) for luminescence quantification. Anti-mutCALR antibodies inhibit mutCALR-induced oncogenic cell proliferation in a dose-dependent manner in both the Ba/F3 engineered cells (FIG. 2).
To test the ability of anti-mutCALR antibodies to inhibit oncogenic cell proliferation triggered by the Type 1 and Type 2 CALR mutations, Ba/F3 cells (DSMZ) were engineered to express MPL+mutCALR Type 1 (52 bp deletion, SEQ ID NO:320) or MPL+mutCALR Type 2 (5 bp insertion; SEQ ID NO:321). Cells were plated at 5,000 cells per well in RPMI 1640+2% FBS, antibodies added, incubated for 72 hours, and followed by assessment of cell viability using the CellTiter-Glo Luminescent Cell Viability Assay (Promega, Madison, Wis.) and Top Count (Perkin Elmer, Boston, Mass.) or Pherastar (BMG Labtech, Ortenberg, Germany) for luminescence quantification. Anti-mutant CALR antibodies show potency to inhibit mutCALR-induced oncogenic cell proliferation associated with both Type 1 and Type 2 mutations (FIG. 3).

[3] = molecular target: T1, recombinant MBP-mutCALR Type 1 fusion protein (Homo sapiens, UniProt P27797, DEL40-40); assay: Biacore SPR binding kinetics, Experiment 1; details: Biacore 8K, 25° C., 1:1 binding model
T1 construct: His6 (N); purchased Cepter (cepterbiopartners.com), custom made
Experimental: The amino acid sequence of recombinant MBP-mutCALR Type 1 fusion protein used in Experiments 1 and 2 is:
Experiment 1: Recombinant MBP-mutCALR Type 1 fusion protein was custom made at Cepter (cepterbiopartners.com). Data for the interaction of antibodies with recombinant MBP-mutCALR Type 1 fusion protein were collected at 25° C. on a Biacore 8K instrument (Cytiva, Marlborough, Mass.), and all reagents were obtained from Cytiva unless otherwise specified. The experiments were conducted using Tris-buffered saline (pH 7.2), 0.005% Surfactant P20, 1 mM CaCl2) as running buffer. To prepare the capture surfaces, anti-human IgG (Fc) antibodies (Product #29234600) was amine-coupled onto a CM4 chip (Product #BR100534) under standard conditions using an Amine Coupling Kit (Product #BR100050). Anti-mutCALR antibodies were captured onto the chip surface by injecting over flow cell 2 only at a flow rate of 30 μL/min for 30 seconds. […] The kinetics parameters were obtained by applying 1:1 binding model to fit the data from multiple-cycle injection experiments using Biacore Insight Evaluation software.

[4] = molecular target: T1, recombinant MBP-mutCALR Type 1 fusion protein; assay: Biacore SPR binding kinetics, Experiment 2 (parental and variant antibodies); details: Biacore 8K, 25° C., 1:1 binding model

Row | Molecule | MPL-mutCALR Hill Slope [1] | IC50 inhibition of cell proliferation [2] | ka [3] | kd [3] | ka [4] | kd [4]
1 | B1 | 0.31 | 0.0049 µg/mL | 935000 M⁻¹ s⁻¹ | 0.00405 s⁻¹ | – | –
2 | B2 | 0.24 | 0.0113 µg/mL | 1.59e+06 M⁻¹ s⁻¹ | 0.00609 s⁻¹ | – | –
3 | B3 | – | 0.8345 µg/mL | 1.38e+06 M⁻¹ s⁻¹ | 0.0196 s⁻¹ | – | –
4 | B4 | 0.17 | – | 1.66e+06 M⁻¹ s⁻¹ | 0.00811 s⁻¹ | – | –
5 | B5 | 0.53 | – | 2.27e+06 M⁻¹ s⁻¹ | 0.00581 s⁻¹ | – | –
6 | B6 | 0.43 | – | 2.13e+06 M⁻¹ s⁻¹ | 0.00599 s⁻¹ | – | –
7 | B7 | 0.68 | – | 229000 M⁻¹ s⁻¹ | 0.00235 s⁻¹ | 6.36e+06 M⁻¹ s⁻¹ | 0.108 s⁻¹
